{
  "source": "paper PMC4336329",
  "about": "(PLoS ONE, 2015)",
  "note": "About 2,200 (0.71%) of roughly 310,000 compounds showed an effect of 50% or more. The effect is printed as a negative number. The list shows a part of the results.",
  "data": [
    {"molecular_target": "human ether-à-go-go-related gene (hERG) potassium channel (human, UniProt Q12809)", "sequence (Q12809 whole entry, looked up)": "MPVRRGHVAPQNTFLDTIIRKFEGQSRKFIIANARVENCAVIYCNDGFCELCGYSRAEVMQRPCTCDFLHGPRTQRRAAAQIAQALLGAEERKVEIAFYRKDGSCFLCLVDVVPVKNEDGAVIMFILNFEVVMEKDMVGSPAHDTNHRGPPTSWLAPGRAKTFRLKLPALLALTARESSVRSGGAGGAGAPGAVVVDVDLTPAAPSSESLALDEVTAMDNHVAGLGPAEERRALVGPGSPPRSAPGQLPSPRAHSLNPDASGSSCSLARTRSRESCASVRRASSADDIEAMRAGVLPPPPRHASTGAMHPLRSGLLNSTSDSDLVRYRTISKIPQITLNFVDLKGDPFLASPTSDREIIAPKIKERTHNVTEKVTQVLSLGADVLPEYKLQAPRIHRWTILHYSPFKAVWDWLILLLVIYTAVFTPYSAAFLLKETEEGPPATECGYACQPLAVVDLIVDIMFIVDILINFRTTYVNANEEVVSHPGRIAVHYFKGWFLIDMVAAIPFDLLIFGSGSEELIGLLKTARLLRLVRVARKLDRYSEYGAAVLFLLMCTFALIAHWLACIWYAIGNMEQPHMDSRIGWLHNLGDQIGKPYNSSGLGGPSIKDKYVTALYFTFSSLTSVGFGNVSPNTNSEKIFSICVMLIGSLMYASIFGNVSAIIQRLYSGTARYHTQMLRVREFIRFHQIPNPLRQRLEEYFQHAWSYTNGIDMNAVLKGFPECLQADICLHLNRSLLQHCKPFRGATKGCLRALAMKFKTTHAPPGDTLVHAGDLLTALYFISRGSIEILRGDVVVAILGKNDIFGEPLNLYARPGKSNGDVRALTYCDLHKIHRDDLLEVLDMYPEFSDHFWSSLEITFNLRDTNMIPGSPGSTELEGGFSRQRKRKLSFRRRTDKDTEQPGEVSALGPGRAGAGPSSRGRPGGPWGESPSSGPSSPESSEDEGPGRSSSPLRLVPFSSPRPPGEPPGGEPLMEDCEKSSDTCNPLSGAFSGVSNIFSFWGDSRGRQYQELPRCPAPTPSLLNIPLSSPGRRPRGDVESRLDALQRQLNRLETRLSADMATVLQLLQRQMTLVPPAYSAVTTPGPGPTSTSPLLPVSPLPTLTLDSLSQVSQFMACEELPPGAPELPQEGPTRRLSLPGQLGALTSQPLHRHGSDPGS", "test": "primary screen, population patch clamp on CHO cells stably expressing hERG", "units": {"hERG current change (%, negative = inhibition) at 1uM": "%"}, "values": [
      {"smiles": "CSc1ccc(CCNC(=O)CN2C(=O)CCSc3ccccc32)cc1", "hERG current change (%, negative = inhibition) at 1uM": 1.74},
      {"smiles": "Cc1ccc(C(=O)N2CCC(C)CC2)cc1S(=O)(=O)N1CCCCC1", "hERG current change (%, negative = inhibition) at 1uM": 10.4},
      {"smiles": "Nc1c(C(=O)Nc2ccc(Cl)cc2)sc2nc(N3CCOCC3)c3c(c12)CCCC3", "hERG current change (%, negative = inhibition) at 1uM": 13.6},
      {"smiles": "Cc1cc(C)c(/C=N/n2c(C)cc(C)c(C#N)c2=O)c(C)c1", "hERG current change (%, negative = inhibition) at 1uM": 5.19},
      {"smiles": "Cc1cccc(N2CCN(c3nc(C)cc(C)c3C#N)CC2C)c1.Cl", "note": "(stereo not shown)", "hERG current change (%, negative = inhibition) at 1uM": 11.4},
      {"smiles": "O=C(Nc1ccc(F)cc1)Nc1nnc(-c2ccco2)s1", "hERG current change (%, negative = inhibition) at 1uM": 18.1},
      {"smiles": "CCOc1ccc(NC(=O)CSc2nc3ccccc3c(=O)n2CCCC(=O)N2CCCC2)cc1", "hERG current change (%, negative = inhibition) at 1uM": -13.1},
      {"smiles": "CC1=C(C(=O)OCC2CCCO2)C(c2coc3ccc(Cl)cc3c2=O)C2=C(CCCC2=O)N1", "note": "(stereo not shown)", "hERG current change (%, negative = inhibition) at 1uM": 6.76},
      {"smiles": "CCCCOc1ccc(N2C(=O)CC(N(O)c3ccccc3)C2=O)cc1", "note": "(stereo not shown)", "hERG current change (%, negative = inhibition) at 1uM": 12},
      {"smiles": "CCOC(=O)C1(CCOC)CCN(Cc2nc(-c3cccs3)oc2C)CC1", "hERG current change (%, negative = inhibition) at 1uM": -4.18},
      {"smiles": "O=C(c1cc(-c2ccccc2Cl)on1)N1CCN(C(=O)c2ccco2)CC1", "hERG current change (%, negative = inhibition) at 1uM": -1.67},
      {"smiles": "O=C(NN1C(=O)/C(=C\\c2ccc(O)c([N+](=O)[O-])c2)SC1=S)c1ccccc1Cl", "hERG current change (%, negative = inhibition) at 1uM": 15.8},
      {"smiles": "CC(=O)Nc1cc([As](=O)(O)O)ccc1O", "hERG current change (%, negative = inhibition) at 1uM": 15.9},
      {"smiles": "O=C(NC(=S)N1CCc2ccccc21)c1ccccc1Cl", "hERG current change (%, negative = inhibition) at 1uM": 6.46},
      {"smiles": "CCOc1ccc2[nH]c(C)c(CN3CCCCC3)c(=O)c2c1", "hERG current change (%, negative = inhibition) at 1uM": 2.6},
      {"smiles": "O=C(Cc1ccc(Cl)c(Cl)c1)Nc1cccc(S(=O)(=O)N2CCOCC2)c1", "hERG current change (%, negative = inhibition) at 1uM": 8.57},
      {"smiles": "Cc1nn(-c2ccccc2)c(C)c1NC(=O)COc1ccc(C#N)cc1", "hERG current change (%, negative = inhibition) at 1uM": -5.39},
      {"smiles": "COc1cccc(/C=N/Nc2ncnc3c2ncn3Cc2ccccc2)c1O", "hERG current change (%, negative = inhibition) at 1uM": 10.7},
      {"smiles": "Cc1cc2nc3c(c(=O)n2[nH]1)CCCC3", "hERG current change (%, negative = inhibition) at 1uM": 7.48},
      {"smiles": "COC(=O)c1ccc(CSc2nc3ccccc3c(=O)n2-c2ccccc2)o1", "hERG current change (%, negative = inhibition) at 1uM": 9.17},
      {"smiles": "CCOC(=O)N1CCN(C(=O)CN(c2ccc(Oc3ccccc3)cc2)S(C)(=O)=O)CC1", "hERG current change (%, negative = inhibition) at 1uM": 4.21},
      {"smiles": "CC(C)n1cnc2cc(NC(=O)c3ccco3)ccc21", "hERG current change (%, negative = inhibition) at 1uM": 14.9},
      {"smiles": "O=C(Nc1ncccc1O)c1ccc(Cl)c(S(=O)(=O)N2CCCCC2)c1", "hERG current change (%, negative = inhibition) at 1uM": 5.18},
      {"smiles": "CCNc1nc(NC(C)C)nc(NS(=O)(=O)c2ccc(Cl)cc2)n1", "hERG current change (%, negative = inhibition) at 1uM": 13},
      {"smiles": "CCOc1ccc2nc(NC(=O)Nc3cccs3)sc2c1", "hERG current change (%, negative = inhibition) at 1uM": 13.8},
      {"smiles": "Cc1ccc(NC(=O)c2cc(S(=O)(=O)N3CCCC3)cn2C)cc1C", "hERG current change (%, negative = inhibition) at 1uM": 9.68},
      {"smiles": "Fc1ccc(C(CCNCc2cccs2)c2ccco2)cc1", "note": "(stereo not shown)", "hERG current change (%, negative = inhibition) at 1uM": -28},
      {"smiles": "O=C(NCC1CCCO1)c1ccc([N+](=O)[O-])o1", "note": "(stereo not shown)", "hERG current change (%, negative = inhibition) at 1uM": -4.31},
      {"smiles": "Cc1ccc(C2C=C(c3ccc4c(c3)OCO4)Nc3ncnn32)cc1", "note": "(stereo not shown)", "hERG current change (%, negative = inhibition) at 1uM": 6.96},
      {"smiles": "COc1ccc(NC(=O)N2CCC3(CC2)OCCO3)c(OC)c1", "hERG current change (%, negative = inhibition) at 1uM": 4.56},
      {"smiles": "Cc1c(C)c2ccc(OC(C)C(=O)N3CC[C@@]4(O)CCCC[C@H]4C3)cc2oc1=O", "note": "(stereo partly shown)", "hERG current change (%, negative = inhibition) at 1uM": 2.7},
      {"smiles": "CCS(=O)(=O)N1CCCC(C(=O)NCc2cccnc2)C1", "note": "(stereo not shown)", "hERG current change (%, negative = inhibition) at 1uM": 14.3},
      {"smiles": "[O-]/[N+](=C/c1ccco1)c1ccccc1", "hERG current change (%, negative = inhibition) at 1uM": 10.7},
      {"smiles": "NS(=O)(=O)c1ccc(CCNC(=O)CSc2nc3ccccc3c(=O)n2CCN2CCOCC2)cc1", "hERG current change (%, negative = inhibition) at 1uM": 19},
      {"smiles": "Cc1ccc(S(=O)(=O)N2CCN(C(=O)c3cccc(F)c3)CC2)cc1", "hERG current change (%, negative = inhibition) at 1uM": 0.222},
      {"smiles": "COc1ccc(OCC(=O)NNC(=O)c2c(-c3ccccc3Cl)noc2C)cc1", "hERG current change (%, negative = inhibition) at 1uM": 13.6},
      {"smiles": "Cc1cc2nc(C)n(CCCNC(=O)Nc3ccc(F)cc3)c2cc1C", "hERG current change (%, negative = inhibition) at 1uM": -4.65},
      {"smiles": "CC(=O)Nc1ccc(NC(=O)CN2CCN(c3cccc(C(F)(F)F)c3)CC2)cc1", "hERG current change (%, negative = inhibition) at 1uM": 1.61},
      {"smiles": "CC(=O)NC1C(=O)N(CC(C)C)c2ccccc21", "note": "(stereo not shown)", "hERG current change (%, negative = inhibition) at 1uM": 8.77},
      {"smiles": "COc1ccc(OCC(O)CNC(=O)Nc2ccccc2)cc1", "note": "(stereo not shown)", "hERG current change (%, negative = inhibition) at 1uM": 2.47},
      {"smiles": "O=C(Nc1nnc(SCc2cccnc2)s1)C1CC(=O)N(c2ccc(F)cc2)C1", "note": "(stereo not shown)", "hERG current change (%, negative = inhibition) at 1uM": 10.1},
      {"smiles": "CCOc1ccccc1C(=O)N/N=C/c1ccoc1", "hERG current change (%, negative = inhibition) at 1uM": 15.4},
      {"smiles": "COc1ccccc1N1CCN(C2CC(=O)N(c3ccccc3)C2=O)CC1", "note": "(stereo not shown)", "hERG current change (%, negative = inhibition) at 1uM": 17.1},
      {"smiles": "Cc1cc(Nc2ccccc2N2CCOCC2)n2ncnc2n1", "hERG current change (%, negative = inhibition) at 1uM": -4.73},
      {"smiles": "CCOC(=O)C1(Cc2cccc(OC)c2)CCCN(C(=O)CCN2CCCO2)C1", "note": "(stereo not shown)", "hERG current change (%, negative = inhibition) at 1uM": 4.85},
      {"smiles": "Cl.O=C(CCN1CCCCCC1)c1ccccc1", "hERG current change (%, negative = inhibition) at 1uM": 0.428},
      {"smiles": "Cc1cc(Br)ccc1SCC(=O)OCC(=O)NC(C)c1ccccc1", "note": "(stereo not shown)", "hERG current change (%, negative = inhibition) at 1uM": -4.48},
      {"smiles": "O=P1(O)C=C(c2ccccc2)NC(c2ccccc2)=C1", "hERG current change (%, negative = inhibition) at 1uM": 3.18},
      {"smiles": "COc1ccc(COCC(O)CN2CCC(C(N)=O)CC2)cc1", "note": "(stereo not shown)", "hERG current change (%, negative = inhibition) at 1uM": 11.7},
      {"smiles": "COCCNC(=O)c1n[nH]c2ccccc12", "hERG current change (%, negative = inhibition) at 1uM": 7.52},
      {"smiles": "O=c1c([N+](=O)[O-])c[nH]c2ccccc12", "hERG current change (%, negative = inhibition) at 1uM": 12.5},
      {"smiles": "Cc1c(NC(=S)NC(=O)c2ccco2)cccc1-c1nc2ncccc2o1", "hERG current change (%, negative = inhibition) at 1uM": 8.18},
      {"smiles": "CC(=O)c1cc(C(=O)NC2CCCc3c2cnn3-c2cc(C)cc(C)c2)[nH]n1", "note": "(stereo not shown)", "hERG current change (%, negative = inhibition) at 1uM": -4.3},
      {"smiles": "Cc1ccc(/C(N)=N/OC(=O)c2ccc(F)cc2)cc1", "hERG current change (%, negative = inhibition) at 1uM": 13.8},
      {"smiles": "Cc1ccccc1NC(=O)NCCc1ccc(Cl)cc1", "hERG current change (%, negative = inhibition) at 1uM": 8.42},
      {"smiles": "COc1ccccc1N1CCN(C(=O)C(OC(C)=O)c2ccccc2)CC1", "note": "(stereo not shown)", "hERG current change (%, negative = inhibition) at 1uM": 11.8},
      {"smiles": "COc1ccc(-c2nc(NC(=O)c3ccc(OCC(=O)N4CCOCC4)c(OC)c3)sc2C)cc1", "hERG current change (%, negative = inhibition) at 1uM": 8.7},
      {"smiles": "O=[N+]([O-])c1ccc(N=Nc2ccc(O)cc2O)cc1", "hERG current change (%, negative = inhibition) at 1uM": 14.1}
    ]}
  ]
}
